# PubChem BioAssay (Tox21)
# Values joined by “and” are separate entries in the source; they are usually repeats but may differ in a detail not shown here. Equal entries are not always repeated. This list was built around the results that the source calls inconclusive (neither active nor inactive); the mix of calls is not that of the screen. Where the call is inconclusive, the potency comes from a doubtful curve fit. Active and inactive are the calls of the source. Calls come from the whole dose curve; as a rule, active = well fitted curve in the direction sought with a large enough effect in the repeat runs; inconclusive = weak or mixed curves; inactive = no such curve, though single readings can be large; an effect the other way counts as inactive or inconclusive.
# Molecular target: Cytochrome P450 1A2 (Homo sapiens) (UniProt P05177)
# Assay: Cytochrome P450 Family 1 Subfamily A Member 2 (CYP1A2) small molecule antagonists: luciferase reporter qHTS assay (AID 1671199)
# Conditions: P450-Glo CYP1A2 enzyme, luciferin luminescence, 1 h; series mostly up to 115 µM
# How it was run: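 Enzymatic CYP1A2 assay, human, luminescent: 10 min compound–enzyme–substrate preincubation, 1 h NADPH-dependent turnover, 20 min detection step, room temperature throughout. Reduced light indicates lower CYP1A2 activity.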
# Note: nearly all actives have a fitted effect of over 50% in size.
# Potency is the fitted concentration of half-maximal effect; tags give direction and shape of the fitted curve.
# Chain of UniProt P05177 (P05177 whole entry, looked up): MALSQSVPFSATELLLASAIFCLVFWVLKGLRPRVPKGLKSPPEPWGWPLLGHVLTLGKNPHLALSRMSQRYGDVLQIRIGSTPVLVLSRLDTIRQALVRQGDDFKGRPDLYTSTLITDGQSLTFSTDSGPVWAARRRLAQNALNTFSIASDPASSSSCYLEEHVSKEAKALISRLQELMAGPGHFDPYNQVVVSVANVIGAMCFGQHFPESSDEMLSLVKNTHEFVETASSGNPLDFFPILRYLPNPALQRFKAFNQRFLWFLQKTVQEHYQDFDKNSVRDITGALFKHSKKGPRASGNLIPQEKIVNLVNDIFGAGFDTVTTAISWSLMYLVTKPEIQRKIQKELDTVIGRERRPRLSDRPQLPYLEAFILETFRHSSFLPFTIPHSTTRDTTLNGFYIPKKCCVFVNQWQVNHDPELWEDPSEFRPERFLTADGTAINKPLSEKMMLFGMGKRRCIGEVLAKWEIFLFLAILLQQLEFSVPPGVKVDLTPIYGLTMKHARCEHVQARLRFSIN
row,Structure (SMILES),Potency
1,CCn1ccnc1CC1COc2ccccc2O1 (stereo not given),"inconclusive: 28.8 µM [inhibitor, partial curve, poor fit]"
2,Cc1ccc(C2OC[C@@H]3OC(c4ccc(C)cc4)O[C@H]([C@H](O)CO)[C@@H]3O2)cc1 (stereo not given in full),inactive
3,CCOC(=O)c1cnc2c(cnn2CC)c1NN=C(C)C,active: 2.04 µM
4,CCN(CC)CCOC(=O)C1(c2ccccc2)CCCC1,"inconclusive: 32.3 µM [inhibitor, partial curve, poor fit]"
5,Cc1cc(NC(=O)C(=O)O)cc(C)c1Oc1ccc(O)c2c1CCC2,"inconclusive: 79.6 µM [inhibitor, partial curve, poor fit]"
6,O=C(NCCO[N+](=O)[O-])c1cccnc1,inactive
7,N[C@@H](Cc1c[nH]c2ccc(O)cc12)C(=O)O,active: 30.8 µM and active: 30.9 µM
8,CCC(=O)c1ccc(O)cc1,"inconclusive: 28.8 µM [inhibitor, partial curve, poor fit]"
9,CCC(C)(C)C1CCC(O)CC1 (stereo not given),"inconclusive: 63.3 µM [inhibitor, partial curve, poor fit]"

# Molecular target: Voltage-gated inwardly rectifying potassium channel KCNH2 (Homo sapiens) (UniProt Q12809)
# Assay: Human Ether-a-go-go-Related Gene (hERG) channel small molecule antagonists: fluorescence cell-based qHTS assay (AID 1671200)
# Conditions: hERG-U2OS cells, FluxOR thallium flux fluorescence; series mostly up to 76.8 µM
# How it was run: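 U2OS cells expressing the channel were plated at 1000 cells/well, incubated overnight at 37 C, then loaded with FluxOR II thallium-sensitive dye for 1 h at room temperature in the dark, with a further 10 min at room temperature before stimulation.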
# Chain of UniProt Q12809 (Q12809 whole entry, looked up): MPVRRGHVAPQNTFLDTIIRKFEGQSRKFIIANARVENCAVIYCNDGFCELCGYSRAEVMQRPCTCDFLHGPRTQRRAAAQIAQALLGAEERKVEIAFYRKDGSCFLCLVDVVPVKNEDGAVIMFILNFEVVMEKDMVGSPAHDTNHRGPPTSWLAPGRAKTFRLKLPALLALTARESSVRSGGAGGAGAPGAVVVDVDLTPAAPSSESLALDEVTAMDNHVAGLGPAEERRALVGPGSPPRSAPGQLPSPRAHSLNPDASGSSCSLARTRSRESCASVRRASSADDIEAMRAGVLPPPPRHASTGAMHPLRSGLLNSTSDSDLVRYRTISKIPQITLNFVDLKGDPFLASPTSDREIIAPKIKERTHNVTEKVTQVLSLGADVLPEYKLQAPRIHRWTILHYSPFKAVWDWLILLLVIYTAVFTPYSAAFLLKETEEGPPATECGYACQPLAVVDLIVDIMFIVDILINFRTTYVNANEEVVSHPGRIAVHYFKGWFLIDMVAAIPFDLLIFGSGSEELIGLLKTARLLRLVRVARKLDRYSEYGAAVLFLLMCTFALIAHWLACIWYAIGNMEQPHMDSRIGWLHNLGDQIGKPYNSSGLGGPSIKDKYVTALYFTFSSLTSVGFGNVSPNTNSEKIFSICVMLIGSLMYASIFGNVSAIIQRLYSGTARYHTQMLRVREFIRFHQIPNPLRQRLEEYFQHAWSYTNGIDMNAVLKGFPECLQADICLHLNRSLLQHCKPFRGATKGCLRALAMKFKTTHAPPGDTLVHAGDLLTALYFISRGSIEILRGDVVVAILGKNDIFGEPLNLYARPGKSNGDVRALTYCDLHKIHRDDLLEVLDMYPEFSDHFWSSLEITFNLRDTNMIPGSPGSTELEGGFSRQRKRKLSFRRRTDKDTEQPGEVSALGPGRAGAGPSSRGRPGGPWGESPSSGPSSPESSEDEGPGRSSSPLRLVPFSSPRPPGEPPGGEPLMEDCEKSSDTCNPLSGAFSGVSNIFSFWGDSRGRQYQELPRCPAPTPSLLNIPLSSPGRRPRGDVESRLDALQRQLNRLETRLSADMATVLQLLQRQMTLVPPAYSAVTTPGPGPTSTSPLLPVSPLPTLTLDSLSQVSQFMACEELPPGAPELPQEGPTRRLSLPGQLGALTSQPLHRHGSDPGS
row,Structure (SMILES),Potency
1,NC(=O)C1(N2CCCCC2)CCN(CCCC(=O)c2ccc(F)cc2)CC1,"inconclusive: 10.7 µM [inhibitor, partial curve]"
2,CCC(C)(C)C1CCC(O)CC1 (stereo not given),"inconclusive: 54.9 µM [inhibitor, partial curve, poor fit]"
3,CCCCOC(=O)COc1ccc(Cl)cc1Cl,"inconclusive: 39.4 µM [inhibitor, partial curve] and inconclusive: 24.5 µM [inhibitor, partial curve]"

# Molecular target: Cytochrome P450 3A4 (Homo sapiens) (UniProt P08684)
# Assay: Cytochrome P450 Family 3 Subfamily A Member 4 (CYP3A4) small molecule antagonists: luciferase reporter qHTS assay (AID 1671201)
# Conditions: P450-Glo CYP3A4 enzyme, luciferin luminescence, 1 h; series mostly up to 115 µM
# How it was run: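 P450-Glo CYP3A4 system with proluciferin substrate; compounds preincubated 10 min RT with enzyme-substrate mix, then NADPH regeneration added for 1 h RT. Detection reagent 20 min, luminescence read as relative luminescence units.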
# Chain of UniProt P08684 (P08684 whole entry, looked up): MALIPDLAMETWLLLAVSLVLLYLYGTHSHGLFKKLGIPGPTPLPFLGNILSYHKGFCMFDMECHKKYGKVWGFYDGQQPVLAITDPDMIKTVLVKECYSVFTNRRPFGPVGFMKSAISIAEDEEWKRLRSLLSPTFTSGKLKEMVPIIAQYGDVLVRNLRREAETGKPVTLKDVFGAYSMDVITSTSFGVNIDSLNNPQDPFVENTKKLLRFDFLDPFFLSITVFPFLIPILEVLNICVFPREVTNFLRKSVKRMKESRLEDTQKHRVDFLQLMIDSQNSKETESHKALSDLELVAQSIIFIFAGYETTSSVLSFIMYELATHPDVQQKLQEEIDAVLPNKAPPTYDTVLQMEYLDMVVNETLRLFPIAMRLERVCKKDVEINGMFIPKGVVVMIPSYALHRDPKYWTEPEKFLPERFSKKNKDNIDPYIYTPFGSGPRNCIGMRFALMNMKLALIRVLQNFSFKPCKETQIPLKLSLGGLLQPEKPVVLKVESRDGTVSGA
row,Structure (SMILES),Potency
1,O=P(OC(CCl)CCl)(OC(CCl)CCl)OC(CCl)CCl,active: 706 nM and active: 2.83 µM
2,Cc1ccc(C2OC[C@@H]3OC(c4ccc(C)cc4)O[C@H]([C@H](O)CO)[C@@H]3O2)cc1 (stereo not given in full),"inconclusive: 8.94 µM [inhibitor, full curve]"
3,N#C[C@@H]1CC(F)(F)CN1C(=O)CNC1CC2CCC(C1)N2c1ncccn1 (stereo not given in full),"inconclusive: 56.4 µM [inhibitor, partial curve]"
